Results reported in PubChem BioAssay AID1347165 (National Center for Advancing Translational Sciences (NCATS), 2019).
The campaign covered roughly 220,000 compounds. About 5,700 (2.6%) were called active. Inconclusive results, whose numbers are uncertain, are shown with a selection of clear calls. Calls come from the whole dose curve; as a rule, active = well fitted inhibition curve with a large enough effect; inconclusive = small, poorly fitted or top-dose-only effect; inactive = no such curve, though single readings can be large or run the other way. Potencies beside an inconclusive call are fits to weak or partial responses and may not hold up.

The compounds below were run against Lysine-specific demethylase 5B (Homo sapiens) (UniProt Q9UGL1) (assay: Primary screen for KDM5B Histone Demethylases FDH-coupled qHTS). Details: FDH-coupled NADH fluorescence (FDH is formaldehyde dehydrogenase); activity change, negative = inhibition: at 57.7 µM (top of the series) unless noted.
Summary of the method: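 Coupled FDH/NAD⁺ fluorescence readout. KDM5BΔAP 200 nM final; compound titration, 10 min RT preincubation; substrate mix 12.5 µM H3K4me3, 25 µM 2-OG, 50 µM Fe(II), 100 µM ascorbate, 0.25 mM NAD⁺, 0.25 U/mL FDH; ΔRFU over 30 min.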
Note: nearly all actives have a fitted effect of over 70% in size.
Potency is the fitted concentration of half-maximal effect; tags give direction and shape of the fitted curve.
Throughout, for activity change, negative = inhibition: 0% is about no effect.

Chain of UniProt Q9UGL1 (Q9UGL1 whole entry, looked up): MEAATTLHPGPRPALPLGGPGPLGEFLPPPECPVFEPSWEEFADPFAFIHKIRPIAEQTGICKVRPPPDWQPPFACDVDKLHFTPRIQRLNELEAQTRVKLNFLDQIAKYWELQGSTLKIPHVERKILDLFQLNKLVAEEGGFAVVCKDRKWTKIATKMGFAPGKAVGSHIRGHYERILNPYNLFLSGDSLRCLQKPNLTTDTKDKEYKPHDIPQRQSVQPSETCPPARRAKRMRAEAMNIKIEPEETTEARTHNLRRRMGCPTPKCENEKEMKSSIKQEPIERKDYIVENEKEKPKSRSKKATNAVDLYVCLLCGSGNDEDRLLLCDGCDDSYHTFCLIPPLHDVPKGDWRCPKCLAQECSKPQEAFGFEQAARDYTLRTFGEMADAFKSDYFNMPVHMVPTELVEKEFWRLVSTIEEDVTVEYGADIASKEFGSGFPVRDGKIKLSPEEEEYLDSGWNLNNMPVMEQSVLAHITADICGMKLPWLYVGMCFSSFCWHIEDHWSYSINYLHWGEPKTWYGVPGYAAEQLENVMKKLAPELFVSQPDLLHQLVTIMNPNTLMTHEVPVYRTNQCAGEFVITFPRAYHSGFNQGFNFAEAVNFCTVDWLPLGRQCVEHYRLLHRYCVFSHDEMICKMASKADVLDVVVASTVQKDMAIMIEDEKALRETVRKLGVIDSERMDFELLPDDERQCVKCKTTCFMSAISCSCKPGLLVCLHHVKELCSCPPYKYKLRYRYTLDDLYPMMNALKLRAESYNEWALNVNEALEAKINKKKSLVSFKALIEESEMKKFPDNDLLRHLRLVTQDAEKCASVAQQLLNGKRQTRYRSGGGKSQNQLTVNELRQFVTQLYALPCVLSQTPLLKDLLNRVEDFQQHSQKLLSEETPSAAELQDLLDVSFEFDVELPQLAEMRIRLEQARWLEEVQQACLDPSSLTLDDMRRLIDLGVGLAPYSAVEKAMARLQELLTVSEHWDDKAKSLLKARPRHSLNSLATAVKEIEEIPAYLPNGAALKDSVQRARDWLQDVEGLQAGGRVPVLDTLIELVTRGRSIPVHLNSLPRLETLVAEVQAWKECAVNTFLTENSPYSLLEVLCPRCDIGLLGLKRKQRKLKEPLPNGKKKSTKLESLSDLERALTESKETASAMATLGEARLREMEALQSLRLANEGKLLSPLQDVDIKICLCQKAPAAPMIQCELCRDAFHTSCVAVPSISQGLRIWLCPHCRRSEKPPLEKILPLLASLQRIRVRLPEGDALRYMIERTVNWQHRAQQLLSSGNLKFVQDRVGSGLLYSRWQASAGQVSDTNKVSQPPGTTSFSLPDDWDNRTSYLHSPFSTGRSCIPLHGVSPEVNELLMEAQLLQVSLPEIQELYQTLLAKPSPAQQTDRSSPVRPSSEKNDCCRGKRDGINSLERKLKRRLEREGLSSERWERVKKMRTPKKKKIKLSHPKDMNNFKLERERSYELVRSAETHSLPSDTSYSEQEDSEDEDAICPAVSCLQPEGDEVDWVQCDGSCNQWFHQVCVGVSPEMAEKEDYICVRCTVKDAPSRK

Structure (SMILES) | Potency | activity change, negative = inhibition
Cc1ccc(S(=O)(=O)c2cnc(SCC(=O)Nc3cccc(Cl)c3)nc2N)cc1C | inconclusive: 22.4 µM [inhibitor, single point] | 
O=C(CSc1n[nH]c(-c2cc(Br)ccc2O)n1)N1CCOCC1 | inconclusive: 22.4 µM [inhibitor, partial curve, poor fit] | 
CC(CC(=O)C1C(C)C=CCC1(C)C)NCc1ccccc1 (stereo not given) | inconclusive: 25.1 µM [inhibitor, partial curve, poor fit] | 
C#CCN1C(=O)S/C(=C/c2cn(C(C)C)c3ccccc23)C1=O |  | inactive: -4.31%
CC(C)c1nc2cc(C(=O)N3CCCC(c4ccccc4)C3)ccc2o1 (stereo not given) |  | inactive: -5.78%
Cc1cccc(CSc2nc3c(sc4ccccc43)c(=O)n2CCC(=O)NC(C)C)c1 | inconclusive: 15.8 µM [inhibitor, partial curve, poor fit] | 
CCCCCC(=C/c1ccccc1)/C=N/Nc1nc2ccccc2[nH]1 | inconclusive: 25.1 µM [inhibitor, partial curve, poor fit] | 
O=C1[C@@H]2C[C@@H](CN2Cc2ccccc2)Oc2ccccc2N1CC1CC1 |  | inactive: -15.8% [at 86.2 µM]
Cc1ccc2c(C(=O)N3CCOCC3)cnn2c1 | active: 31.6 µM | 
Cc1ccc(S(=O)(=O)NC[C@H]2O[C@@H](CC(=O)N3CCN(c4ccccn4)CC3)[C@H](O)[C@@H]2O)cc1 | active: 28.2 µM | 
CN(C)c1cccc(C(=O)NCC2CCN(c3cc(-c4ccccc4)[nH]n3)CC2)c1 | active: 25.1 µM | 
COc1ccc(C)cc1NC(=O)N1CCN(S(=O)(=O)c2ccc3c(ccn3C)c2)CC1 | inconclusive: 17.8 µM [inhibitor, partial curve, poor fit] | 
CCn1c(C2CCCNC2)nn(Cc2csc(-c3ccccc3)n2)c1=O (stereo not given) | inconclusive: 11.2 µM [inhibitor, partial curve, poor fit] | 
CC1Oc2ccc(NC(=O)C3CCCC3)cc2CN(Cc2ccc(F)cc2)C1=O (stereo not given) |  | inactive: -9.82%
O=C(NC[C@H]1Cn2c(-c3ccc4c(c3)OCO4)cnc2CO1)Nc1ccccc1 | inconclusive: 50.1 µM [inhibitor, single point] | 
COc1cccc(CNC(=O)c2cc(-c3ccc(Cl)s3)nc3ccccc23)c1 | inconclusive: 35.5 µM [inhibitor, single point] | 
CC1CCCN(S(=O)(=O)c2ccc3c(c2)C(C)(C)C(=O)N3CC(=O)NC2CCCCCC2)C1 (stereo not given) |  | inactive: 17.4%
COc1nc2c(cc1CNC(=O)[C@@H](N)CO)C(=O)N(CCc1ccccn1)C2 | inconclusive: 25.1 µM [inhibitor, partial curve, poor fit] | 
COc1cccc(NC(=O)CN2C(=O)CC(c3ccccc3)=Nc3ccccc32)c1 |  | inactive: -2.54%
COc1ccccc1-c1cc(-c2cccs2)nc2c(C)noc12 | active: 35.5 µM | 
O=c1c2nc(-c3ccccc3)ccc2ncn1-c1ccc(F)cc1F | inconclusive: 35.5 µM [inhibitor, partial curve, poor fit] | 
CCn1c2c(c(=O)n3ncc(C(=O)Nc4cc(Cl)ccc4OC)c13)CN(Cc1ccc(OC)cc1)CC2 | inconclusive: 25.1 µM [inhibitor, partial curve, poor fit] | 

Structure (SMILES) | Potency | activity change, negative = inhibition
O=C1N(Cc2ccccn2)C[C@H]2CN(Cc3ccc(C(F)(F)F)cc3)CCN12 |  | inactive: -24.4% [at 86.2 µM]
COc1cccc(C2CC(=O)Nc3c(C(=O)O)cn(-c4cccc(Cl)c4)c32)c1OC (stereo not given) |  | inactive: -10.4%
Cc1cccc(CN2CCCN(Cc3ccncc3)C(c3ccccc3)CC(=O)NCC2)c1 (stereo not given) | inconclusive: 28.2 µM [inhibitor, single point] | 
CCN(CC)S(=O)(=O)c1ccc(Cl)c(C(=O)NNC(=O)c2csc(N3CCOCC3)n2)c1 | inconclusive: 35.5 µM [inhibitor, single point] | 
N#CC(Cc1cccnc1)C(=O)Nc1cc(Cl)ccc1Cl (stereo not given) |  | inactive: 13.9%
O=C(Cn1c(=O)c(S(=O)(=O)c2ccccc2)cc2ccccc21)N1CCCC1 | inconclusive: 35.5 µM [inhibitor, partial curve, poor fit] | 
CCN1c2cc(C(=O)NCc3ccccc3C)ccc2C(=O)N2CCCCC21 (stereo not given) | inconclusive: 22.4 µM [inhibitor, partial curve, poor fit] | 
CCCCN1CC(c2nc3ccccc3n2CCCCOc2cc(C)cc(C)c2)CC1=O (stereo not given) | inconclusive: 35.5 µM [inhibitor, single point] | 
O=C(Nc1ccc(Cl)cc1)N1Cc2cccn2-c2ccccc21 | inconclusive: 35.5 µM [inhibitor, single point] | 
Cc1ccc(C)c(-c2cc3c(=O)n(CCNC(=O)c4ccccc4Cl)ccn3n2)c1 |  | inactive: -14.9%
Cn1c(=O)[nH]c(=O)c2c(C(=O)O)cc(C3CC3)nc21 | inconclusive: 20 µM [inhibitor, partial curve, poor fit] | 
Cc1ccc(-c2cnc(CCC(=O)NCC(CC(C)C)N3CCOCC3)o2)cc1C (stereo not given) | inconclusive: 28.2 µM [inhibitor, single point] | 
NC(=O)c1nsc(C(=O)N(c2ccccc2F)C(C(=O)NCc2ccc(F)cc2)c2ccc(O)cc2)c1N (stereo not given) | inconclusive: 28.2 µM [inhibitor, partial curve, poor fit] | 
CC(=O)N1CCCN(C(=O)c2cnc3c(c2)N(Cc2ccccc2)CCC3)CC1 | inconclusive: 39.8 µM [inhibitor, partial curve, poor fit] | 
O=C(O)c1cccc(CN2CC(CNc3ccccc3)C3(C2)CN(c2ccccc2)C3)c1 (stereo not given) | inconclusive: 56.2 µM [inhibitor, single point] | 
Cc1ccc(F)cc1C(=O)Nc1nc(C)c(C)s1 |  | inactive: 11.6%
O=C(/C=C/c1cccc([N+](=O)[O-])c1)c1ccccc1OC(F)F | inconclusive: 10 µM [inhibitor, partial curve, poor fit] | 
O=C(COC(=O)c1ccc2c(c1)NC(=O)CS2)Nc1cccc(Cl)c1 |  | inactive: -2.97%
COCC(=O)N[C@@H]1CN(Cc2ccc3cc[nH]c3c2)CC[C@@H]1CO | inconclusive: 31.6 µM [inhibitor, single point] | 
COc1cc(/C=C(/C#N)c2nc3ccccc3[nH]2)ccc1SC | inconclusive: 39.8 µM [inhibitor, single point] | 
COc1ccc(Nc2oc(COc3ccccc3C)nc2C#N)cc1 | inconclusive: 39.8 µM [inhibitor, single point] | 
CS(=O)(=O)N(Cc1ccccc1)c1ccc(C(=O)Nc2cccc(Cl)c2)cc1 | inconclusive: 25.1 µM [inhibitor, partial curve, poor fit] | 

Structure (SMILES) | Potency | activity change, negative = inhibition
Cc1ccc2nc(C(=O)N(C)Cc3cc(-c4cccnc4)no3)cn2c1 |  | inactive: -21%
CCCCCc1ccc(-c2ccc(CCC)cc2)nc1 |  | inactive: 27.9%
Cc1ccc(N/N=C/c2ccc(Br)cc2)cc1Cl |  | inactive: -8.6%
COc1cc(CNc2ccc3[nH]c(=O)[nH]c3c2)ccc1OCc1ccc(F)cc1Cl | inconclusive: 8.91 µM [inhibitor, partial curve, poor fit] | 
O=C(C1CCCN(c2nc(-c3ccccc3)nc3c2CCC3)C1)N1CCCNCC1 (stereo not given) | inconclusive: 14.1 µM [inhibitor, partial curve, poor fit] | 
COc1ccc(CN2CCc3c(c(=O)n4ncc(C(=O)N5CCN(c6ccccc6F)CC5)c4n3C)C2)cc1 | inconclusive: 25.1 µM [inhibitor, single point] | 
Cc1nn(Cc2ccccc2)c(C)c1CNS(=O)(=O)c1cccc(C#N)c1 |  | inactive: 1.34%
CCn1ccc(C(=O)N2CC[C@@H]3COCCN(Cc4ccncc4)[C@@H]3C2)n1 | inconclusive: 35.5 µM [inhibitor, single point] | 
CCc1ccc(NC(=O)CSc2nnc3[nH]c(=O)cc(-c4ccccc4)n23)cc1 | inconclusive: 15.8 µM [inhibitor, partial curve, poor fit] | 
CC(Nc1ccc2oc(C(C)(C)C)nc2c1)C(=O)N1CCCC1 (stereo not given) | inconclusive: 39.8 µM [inhibitor, single point] | 
CC(c1ccccc1)N(C)C(=O)COC(=O)c1cc2ccccc2[nH]1 (stereo not given) | inconclusive: 22.4 µM [inhibitor, partial curve, poor fit] | 
CCN(C(=O)CCc1nc(-c2ccc(C)cc2)no1)c1cccc(C(F)(F)F)c1 | inconclusive: 4.47 µM [inhibitor, full curve, poor fit] | 
CN(Cc1ccccc1)C(=O)c1nc2ccccn2c1CNCCOc1cccnc1 |  | inactive: 28.6%
Cc1nc2c3ccccc3nn2c(C)c1CCC(=O)Nc1cccc(F)c1 | inconclusive: 31.6 µM [inhibitor, partial curve, poor fit] | 
COc1ccc2[nH]c(=O)c(CN(Cc3cnn(C)c3)C3CC3)cc2c1 | inconclusive: 20 µM [inhibitor, partial curve, poor fit] | 
COc1ccccc1NS(=O)(=O)c1ccc(-c2coc(C)n2)cc1 |  | inactive: -10.8%
CC(NC(=O)Cn1ccc2cc(S(=O)(=O)N3CCCCCC3)ccc21)c1ccccc1 (stereo not given) | inconclusive: 28.2 µM [inhibitor, partial curve, poor fit] | 
CCOc1ccc(OCCNCc2ccc(OC(C)C(=O)N(C)C)c(OCC)c2)cc1 (stereo not given) | inconclusive: 10 µM [inhibitor, partial curve, poor fit] | 
c1cnc2nc(C3CCCCN3)[nH]c2c1 (stereo not given) | inconclusive: 28.2 µM [inhibitor, partial curve] | 
Cc1cc(OC(C)C(=O)Nc2ccc3nsnc3c2)ccc1Cl (stereo not given) | inconclusive: 28.2 µM [inhibitor, single point] | 
Cc1cc(=O)oc2cc(OC(C)C(=O)N3CCOCC3)c(Cl)cc12 (stereo not given) | inconclusive: 25.1 µM [inhibitor, partial curve, poor fit] | 
